According to the supplement of paper PMC10126150:
Values marked as one replicate rest on one cluster of the flow cell; about a third of the high ones do not repeat.

Test system: ATP
Test: switch fluorescence ratio, 500 uM ATP over buffer (Cy3 cluster intensity, sum of 5 cycles each) (fold (ratio)); higher = stronger signal-on switching upon ATP binding; sequences stand for … in TCGTCGGCAGCGTCAGATGTGTATAAGAGACAGTTTTTTTTTTTTTTTTTTTTTTTTT…TC
Conditions: aptamer strand: ATP DNA aptamer (quencher-CACCTGGGGGAGTATTGCGGAGGAAGG + anchor), 100 nM annealed; ATP concentration: 500 uM; one replicate
Summary of the method: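 Cy3-labelled switching-strand clusters on a modified Illumina MiSeq flow-cell were annealed to 100 nM quencher-labelled ATP aptamer and imaged first in selection buffer, then after 15 min with 500 uM ATP at 22 °C. NaOH stripping and re-annealing separated each of five buffer/ATP cycles, and clusters outside 100-1000 RFU were excluded. The fluorescence ratio sums target-cycle Cy3 intensity over buffer-cycle Cy3 intensity per cluster and averages it per switch-domain sequence.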
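Further: ATP exposure 15 min at 22 °C before imaging.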

Sequence	switch fluorescence ratio
AGATACAGGC	1
AGGGGCATCC	1.03
TTTCGTCCCT	1.03
CCAGATATGA	0.975
AAACCGAGGG	0.983
CTATAGCATG	1.12
TAGGTCGTCA	1.02
TATTGTCATA	0.977
CACTTTAGG	0.972
AGAATGGAAG	0.996
CCTGTTCCCC	1.08
GTCAGTCAAC	1
GCGAGCAAAC	1.09
CGCGTCTGT	0.971
CGAGCGCCTG	0.994
GGGCACTTTT	0.983
CAAGAAATTG	1.08
ATAAACGTCA	1.06
CGCAGTAATC	4.13
CTCGAATGCT	1.08
TGCAAGTATG	1.1
CCCTGAATGC	2.28

Sequence	switch fluorescence ratio
GTCATCCGAG	1.29
TGACGAAGCT	1.19
CTCAGGTTGA	1.07
TTCCCACAT	1.02
TGAATAAGGG	1.06
GAACGAGACT	1.05
TAAATCTTGT	1.45
GGATAAAGTA	1.08
TGGGTAGCTT	0.996
TACGGCTCGA	1.03
CCGGGTGCCT	1.17
TGCTAGAACA	1.01
GCGGCCGGAG	1
CTAGTTGTTG	0.957
CACAAGTATA	1.07
ACCACCCGTG	1.19
TGGCCCTGAG	1.01
CTCATGGAAA	0.931
GGATGTTACG	1.01
GAGATAGCGG	1
ACTTAGCAGT	1.28
GGGGCTATAC	4.36

Sequence	switch fluorescence ratio
ACGGTAAAAT	1.14
CCTCCTCCC	3.22
TTTTCTTAGC	1.05
CCTGTACTCC	3.23
TATGACTATA	1.07
TCATTCACTT	1.05
CCGGATTTC	1.01
CGTCAAATGA	1.03
CGGACTAAGT	1.06
AAAACAGCT	0.992
TGTTCGCCC	0.99
CACGAGCAAT	2.47
GCCTCGAGGC	0.992
GGTCAGATAA	0.994
CGAGTTTGGT	1.09
TGACCTCGCC	1.41
CCTTCTCTAT	1.19
GCAAAATTAT	1.01
AGCTGGTTA	1.05
CTCTAATGTT	1
GATTGTTGAA	1.01
AGGCTGCTG	0.959

Sequence	switch fluorescence ratio
GGTTACTCCT	1.03
GGTAACATTA	0.95
GAATCATCTG	1.02
GACGTGAGAG	1.09
AGTAACAGGT	1.04
GGTTATCGG	0.942
TTTCGCTTTA	1.02
GAGATTGGTA	1.03
AGAGAGCCGA	1.02
GTTGCCCCCA	1.02
CGTATTGGAG	0.967
GTTGTAAGTC	0.993
GGACGTTAAA	1.08
ATCTCTTAAT	1
ATGATCATTG	0.974
CTCGTTCCTC	1.38
GCCATGGGGC	1.01
ATGTTATAGG	0.985
CAGTGGGT	1.02
